Laboratory results as given in paper PMC7819943, “Rice protein-binding microarrays: a tool to detect cis-acting elements near promoter regions in rice”.
Some of the results follow.

Each sequence was assayed against T1, OsWOX13 (Oryza sativa, UniProt Q5QMM3 1-267) (assay: protein-binding microarray (RPBM); PBS, 2% BSA, 51.3 ng/ul salmon testes DNA, 50 uM zinc acetate, 200 nM TF, 25 C, 1 h; high values mean tight binding). Details: protein: recombinant; tags: N-terminal polyhistidine and DsRed monomer fusion (pET32a); label: CyDye5-dUTP incorporated in the synthesized complementary strand; 3' TTTTT single-stranded linker to array surface; dsDNA, one strand shown.
T1 sequence: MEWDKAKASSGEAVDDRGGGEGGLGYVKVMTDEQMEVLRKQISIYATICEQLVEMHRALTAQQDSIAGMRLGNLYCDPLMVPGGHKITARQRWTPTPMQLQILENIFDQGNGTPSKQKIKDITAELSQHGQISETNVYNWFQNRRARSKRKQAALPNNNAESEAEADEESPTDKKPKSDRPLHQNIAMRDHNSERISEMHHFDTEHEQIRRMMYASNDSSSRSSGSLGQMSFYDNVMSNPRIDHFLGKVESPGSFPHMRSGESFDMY
Outline: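 A custom Agilent array was converted to double-stranded form by primer extension with Cy5-dUTP and blocked with 2% BSA. Protein at 200 nM in PBS with 2% BSA, salmon testes DNA and 50 µM zinc acetate was applied for 1 h at 25 °C, followed by washing. The proteins were polyhistidine–DsRed N-terminal fusions of transcription factors, expressed in E. coli BL21-CodonPlus and Ni–NTA-purified. The binding signal is per-feature fluorescence intensity (arbitrary units) from an Axon 4000B scanner.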
For “TCCCAGTAAATTAACGGATTTAGAAACAGCCGGAAATCTTCGGAGTCACCTAGTGCAG”, the binding signal was 9160 fluorescence intensity (a.u.). “ACTGATAGGCTAGATTAGGTTTTCCTCCCCATTGTACTTCCGGAGTCACCTAGTGCAG” was tested, and the binding signal was 35200 fluorescence intensity (a.u.). In the case of “AATAATTTGAATAGTCTGTATACAGAGTAAGAAAAGTAACCGGAGTCACCTAGTGCAG”, the binding signal is reported as 8970 fluorescence intensity (a.u.). For “TAGTGCTCATTGATTCCACTAATTAAGAACCGCTAACTACCGGAGTCACCTAGTGCAG”, the binding signal was 15000 fluorescence intensity (a.u.). For “TATATGGTAATTAATCCTTGTGCGCTGACACTGATCAAGTCGGAGTCACCTAGTGCAG”, the binding signal was 4070 fluorescence intensity (a.u.). For “CCAAAATTTTGGCAGAATTTCTTATGTATTTACCAAAGTTCGGAGTCACCTAGTGCAG”, the binding signal was 3300 fluorescence intensity (a.u.). In the case of “CCCAAATTATACTAATTATTTTATTTATTCTACATCTGACCGGAGTCACCTAGTGCAG”, the binding signal is reported as 27800 fluorescence intensity (a.u.). “AATATCCCATGATTGACTAGCTAGATGAATCCATATGGGTCGGAGTCACCTAGTGCAG” was tested, and the binding signal was 36500 fluorescence intensity (a.u.). In the case of “GGGTGATTAATCCAAGTAATGATCTCACTCCACTGATAGTCGGAGTCACCTAGTGCAG”, the binding signal is reported as 26800 fluorescence intensity (a.u.). In the case of “CAACTAATTGAATATTGTATTTTAATGCTCGTGGTGTCCCCGGAGTCACCTAGTGCAG”, the binding signal is reported as 52200 fluorescence intensity (a.u.). For “GAAGAAGATTGCCGGTTGACTTGTGGAGTCCACGTGGGACCGGAGTCACCTAGTGCAG”, the binding signal was 8820 fluorescence intensity (a.u.). For “TTTATTTGTTTTGCTGATGATTTGCTACGTCAGCGAAACCCGGAGTCACCTAGTGCAG”, the binding signal was 4530 fluorescence intensity (a.u.). In the case of “GTCCCCGAACTTCCAGTTAATTATGTGCCGGTCCTAGATTCGGAGTCACCTAGTGCAG”, the binding signal is reported as 4240 fluorescence intensity (a.u.). For “GTCTGATTTTGGCTGTGTAAATCCGTCTCAGGATAGGCCGCGGAGTCACCTAGTGCAG”, the binding signal was 13200 fluorescence intensity (a.u.). In the case of “TTTGATATGTTGTCTTCCTCCAATTACGAATCTTTCGTTGCGGAGTCACCTAGTGCAG”, the binding signal is reported as 10400 fluorescence intensity (a.u.). With “AATAATTAATACTGGTTTGTCTCGTTTTACGTATCATAAACGGAGTCACCTAGTGCAG” the binding signal was 21400 fluorescence intensity (a.u.). For “TGTTATAATAGTGTAGATTGATCGATATAATTGTATATGACGGAGTCACCTAGTGCAG”, the binding signal was 3170 fluorescence intensity (a.u.). With “GGGTAAAATTATCAAAATTAATCACCTTTCTTCCTCCTCGCGGAGTCACCTAGTGCAG” the binding signal was 17400 fluorescence intensity (a.u.). With “CCAAATTTTGATATGCCAAATTTTGATCGCCCACCTGCACCGGAGTCACCTAGTGCAG” the binding signal was 7090 fluorescence intensity (a.u.). For “GGGAATTAGGGGCAGATTGCTAAGGACTTAGACGTGTTGCCGGAGTCACCTAGTGCAG”, the binding signal was 15700 fluorescence intensity (a.u.). In the case of “CCTGAGCGAGTTGATTTGCACTGTTCCTTGAACACACAAGCGGAGTCACCTAGTGCAG”, the binding signal is reported as 5420 fluorescence intensity (a.u.). “ATTTTCTCTTAAATTACTTATCTAATCTATAATCCGATCACGGAGTCACCTAGTGCAG” was tested, and the binding signal was 3650 fluorescence intensity (a.u.). In the case of “ATTTGAGGATTGGTGTCTAAATCACATCATAGTATATTGCCGGAGTCACCTAGTGCAG”, the binding signal is reported as 4340 fluorescence intensity (a.u.).
